Assay results as given in article PMC4336329 (PLoS ONE, 2015).
The whole screen tested about 310,000 compounds, of which about 14,000 (4.5%) showed an effect of 50% or more. The effect is printed as a negative number. Some of the results follow.

target: human ether-à-go-go-related gene (hERG) potassium channel (human, UniProt Q12809); assay: primary screen, population patch clamp on CHO cells stably expressing hERG
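Further: peak tail current of the secondary pulse compared with the same well before compound.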

human ether-à-go-go-related gene (hERG) potassium channel, sequence (Q12809 whole entry, looked up): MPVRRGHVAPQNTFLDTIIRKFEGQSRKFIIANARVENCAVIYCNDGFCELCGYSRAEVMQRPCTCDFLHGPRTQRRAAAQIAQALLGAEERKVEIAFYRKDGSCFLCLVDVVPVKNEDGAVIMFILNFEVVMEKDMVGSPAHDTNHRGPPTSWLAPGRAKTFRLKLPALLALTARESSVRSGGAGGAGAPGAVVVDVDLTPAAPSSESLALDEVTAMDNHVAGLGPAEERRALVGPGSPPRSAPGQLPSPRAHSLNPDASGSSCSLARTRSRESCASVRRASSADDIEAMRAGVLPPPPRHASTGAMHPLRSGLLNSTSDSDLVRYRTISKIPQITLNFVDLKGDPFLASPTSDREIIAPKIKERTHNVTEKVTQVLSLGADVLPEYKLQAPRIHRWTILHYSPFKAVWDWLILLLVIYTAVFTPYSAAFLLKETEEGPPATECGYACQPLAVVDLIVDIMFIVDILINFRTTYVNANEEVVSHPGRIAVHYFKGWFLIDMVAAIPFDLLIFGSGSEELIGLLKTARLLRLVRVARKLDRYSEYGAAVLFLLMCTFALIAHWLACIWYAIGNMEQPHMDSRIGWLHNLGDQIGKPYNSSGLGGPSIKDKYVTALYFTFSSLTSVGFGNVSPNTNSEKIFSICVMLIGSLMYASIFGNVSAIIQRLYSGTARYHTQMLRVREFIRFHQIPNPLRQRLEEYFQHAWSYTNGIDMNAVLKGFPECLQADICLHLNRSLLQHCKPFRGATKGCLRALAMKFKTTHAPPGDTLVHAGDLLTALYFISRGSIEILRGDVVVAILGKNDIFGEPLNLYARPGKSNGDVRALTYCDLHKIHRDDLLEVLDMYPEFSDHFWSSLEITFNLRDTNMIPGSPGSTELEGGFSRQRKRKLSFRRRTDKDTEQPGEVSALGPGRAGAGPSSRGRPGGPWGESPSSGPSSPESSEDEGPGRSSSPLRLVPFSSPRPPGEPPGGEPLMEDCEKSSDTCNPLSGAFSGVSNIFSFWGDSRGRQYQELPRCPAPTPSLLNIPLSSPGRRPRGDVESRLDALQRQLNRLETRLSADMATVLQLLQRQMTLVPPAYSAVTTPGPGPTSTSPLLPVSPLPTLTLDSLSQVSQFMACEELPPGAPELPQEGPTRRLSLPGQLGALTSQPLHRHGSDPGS

| SMILES | hERG current change (%, negative = inhibition) at 10uM [%] |
| --- | --- |
| COc1ccc(Cl)cc1NC(=O)C(C)OC(=O)Cn1cc(C(F)(F)F)ccc1=O (centres unmarked) | -5.5 |
| Cc1ccc(S(=O)(=O)NNC(=S)Nc2ccc(Cl)cc2)cc1 | -4.34 |
| Cc1ccc(CNC(=O)C2CCCCN2S(=O)(=O)c2ccccc2)cc1 (centres unmarked) | -3.68 |
| COc1ccc(NC(=O)C2CC(=O)N(C)C(=Nc3ccc4c(c3)OCO4)S2)cc1 (centres unmarked) | -9.73 |
| Cc1ccc(NC(=O)NNC(=O)COc2ccc3ccccc3c2)cc1 | 20.4 |
| CC1CCCCC1NC(=O)CCN1C(=O)C2C3C=CC(C3)C2C1=O (centres unmarked) | 13 |
| COc1ccccc1CNC(=O)CSc1nnc2ccc(-c3cccnc3)nn12 | -21.9 |
| CCc1ccccc1NC(=O)C(C)n1nc([N+](=O)[O-])c(Br)c1C (centres unmarked) | 8.38 |
| CCCn1c(Nc2ccccc2)nc2ccccc21 | 4.68 |
| Cc1cc(C)c(N(C(=O)c2csnn2)C(C(=O)NC(C)(C)C)c2ccncc2)c(C)c1 (centres unmarked) | 9.01 |
| CC(C)N1CCN(Cc2c[nH]c3ccccc23)CC1CCO (centres unmarked) | 5.6 |
| CS(=O)(=O)N1CCN(c2ccc(NC(=O)c3cccnc3Cl)cc2)CC1 | 13.3 |
| CC(C)OP(=O)(OC(C)C)C(O)c1ccccc1F (centres unmarked) | 9.98 |
| COc1ccccc1N1CCN(C(=O)Cn2cnc3c2c(=O)n(C)c(=O)n3C)CC1 | 8.8 |
| Cc1ccc(NC(=O)NC(=O)N(C(C)C)S(C)(=O)=O)nc1 | -8.32 |
| O=C(Cc1ccccc1[N+](=O)[O-])N1CCN(c2ccccc2F)CC1 | 3.23 |
| Cc1sc2ncnc(NCC3(N4CCOCC4)CCCCC3)c2c1C | -71.1 |
| CC(O)CNc1nc(NCc2ccccc2)c2cnn(C)c2n1 (centres unmarked) | 16.9 |
| Cn1c(CNc2ccc(Cl)cc2)nnc1SCCN1CCCCC1 | -46.4 |
| CSCC[C@H](NC(=O)[C@@H]1Cc2ccccc2CN1)C(=O)NC1CCCCC1 | 5.97 |
| Fc1ccccc1COc1cccc2cccnc12 | 3.54 |
| COc1ccccc1NC(=S)c1ccccc1 | -2.01 |
| CCOc1ccc(C2C(C(=O)c3cccs3)=C(O)C(=O)N2Cc2cccnc2)cc1OC (centres unmarked) | 0.162 |

| SMILES | hERG current change (%, negative = inhibition) at 10uM [%] |
| --- | --- |
| COc1ccc(C2=NN(C(=O)c3cccs3)C(c3ccc(OC)cc3)C2)cc1 (centres unmarked) | 17.1 |
| CCOC(=O)c1ccc(N/C=C/C(=O)c2ccc(OC)cc2)cc1 | 13.7 |
| CC12CCC(C[N+](C)(C)C1)C2(C)C.[I-] (centres unmarked) | 15.8 |
| Cc1ccc(N(CC(=O)N2CCN(Cc3ccccc3)CC2)S(C)(=O)=O)cc1C | -7.28 |
| CC(C)OCCOc1ccc2oc(-c3ccco3)cc(=O)c2c1 | -12.9 |
| CN(CC(=O)Nc1ccccc1Cl)C(=O)CSc1nnc(N)s1 | -1.75 |
| COc1ccc(NS(=O)(=O)c2ccc(C)c(C(=O)N3CCC3)c2)cc1 | 0.971 |
| CC(O)c1nc2ccccc2n1CCCCOc1ccccc1 (centres unmarked) | 2.21 |
| Cc1cc(OC(C)C(=O)N(Cc2ccco2)C2CCS(=O)(=O)C2)ccc1Cl (centres unmarked) | -29 |
| CCc1ccc(CNC(=O)Cn2nc(-c3ccc(C)cc3)ccc2=O)cc1 | -39.2 |
| O=C(O)c1cccc(S(=O)(=O)NCCc2ccccc2)c1 | 14.4 |
| O=C(CNC(=S)N(CCCN1CCOCC1)Cc1cccs1)NCc1ccc(Cl)cc1 | -67.7 |
| COC(=O)c1cc(-c2c(-c3cc(OC)c(OC)c(OC)c3)noc2C)cc([N+](=O)[O-])c1 | -67.8 |
| COCc1cc(=O)n2[nH]c(-c3ccco3)cc2n1 | 12.4 |
| Fc1ccc(-n2nnc(-c3ncc[nH]3)n2)cc1 | 3.42 |
| COCc1nnc(NC(=O)CS(=O)(=O)c2ccc(C)cc2)s1 | 17.6 |
| Cc1ccc2c(c1)C(C)(C)[C@]1(C)NC(=O)CCN21 | -0.041 |
| c1ccc(Nc2cccc(Nc3ccccc3)n2)cc1 | -19.2 |
| COc1ccc(-c2nn(CCC#N)cc2C(=O)Nc2ccccc2)cc1OC | -6.03 |
| CCn1c(-c2ccsc2)nc2c1c(=O)[nH]c(=O)n2Cc1ccccc1 | 13.5 |
| Cc1ccc(S(=O)(=O)/N=C(/Nc2cccc(O)c2)c2ccccc2)cc1 | -2.51 |
| Cc1cc(C(=O)C(C)Cl)c(C)n1Cc1ccco1 (centres unmarked) | 1.07 |
| O=C1c2ccccc2C(=O)N1OS(=O)(=O)c1ccccc1 | 11 |

| SMILES | hERG current change (%, negative = inhibition) at 10uM [%] |
| --- | --- |
| COc1ccc2oc(C(=O)Nc3nc4ccccc4[nH]3)c(C)c2c1 | 9.31 |
| CCCCOc1ccc(C(=O)Oc2cc(C)[nH]c(=O)c2[N+](=O)[O-])cc1 | 18.6 |
| CSCCC(=O)N1CCCC(N(C)CCc2ccccc2)C1 (centres unmarked) | -56.8 |
| NS(=O)(=O)c1ccc(NC(=O)COC(=O)c2ccc([N+](=O)[O-])s2)cc1 | 2.2 |
| CCc1ccc(OC)c(S(=O)(=O)Nc2ccccc2C)c1 | 3.86 |
| Cc1cccc(-n2c(C)cc(/C=N/NC(N)=S)c2C)c1 | -11.8 |
| Cc1ccc(S(=O)(=O)N2CCCC(c3nnc4n3-c3ccccc3SC4)C2)cc1 (centres unmarked) | -92.8 |
| CN(C)C(CNS(=O)(=O)c1ccc(Br)cc1)c1cccnc1 (centres unmarked) | -11.3 |
| Cc1cccc(C)c1NC(=O)CSc1nc(N2CCOCC2)nc(N2CCOCC2)n1 | 14.4 |
| CC(O)(CS(=O)(=O)Cc1ccccc1)c1ccccc1Cl (centres unmarked) | 11.2 |
| O=C(NCC1CC1)[C@@H]1C[C@H]1[C@@H](NP(=O)(c1ccccc1)c1ccccc1)c1ccccc1 | -13.9 |
| c1ccc(SCCN2CCc3ccccc3C2)cc1 | -19.3 |
| Cc1ccc(NC(=O)c2ccc3c(c2)OCCO3)nc1 | 18 |
| COC(=O)c1cc(NC(=S)N2CCN(c3ccccn3)CC2)cc(C(=O)OC)c1 | -13.9 |
| CCOC(=O)/C(C#N)=C1/SC(CC)C(=O)N1c1ccc(C)cc1 (centres unmarked) | -14.8 |
| COc1ccc(C)cc1Nc1n[n+](C)c(-c2c3ccccc3cc3ccccc23)s1.[Cl-] | 13.3 |
| CCOc1cc(C(=O)Nc2cc3c(cc2N2CCOCC2)n(C)c(=O)n3C)cc(OCC)c1OCC | 6.6 |
| O=C(NCCCN1CCOCC1)C(=O)NCc1ccccc1 | 1.24 |
| C/C(=N\Nc1ccc([N+](=O)[O-])cc1[N+](=O)[O-])c1ccc(-n2nncc2C(C)(C)C)cc1 | 0.659 |
| Oc1ccccc1CN(Cc1ccco1)CC(O)COCc1ccc(Cl)cc1 (centres unmarked) | -8.65 |
| Cc1cccc(Nc2c([N+](=O)[O-])c(=O)oc3ccccc23)c1 | -4.39 |
| C(=C\c1ccccc1)/CSc1nnc(-c2cnccn2)n1Cc1ccco1 | -73.4 |
| CC(=O)NN1C(=O)c2ccccc2NC1c1ccc([N+](=O)[O-])o1 (centres unmarked) | 8.22 |

| SMILES | hERG current change (%, negative = inhibition) at 10uM [%] |
| --- | --- |
| CCC(C)[C@H](NC(=O)N1CCCCC1)C(=O)OC (some centres unmarked) | 3.36 |
| CNC(=O)c1cc(Nc2nnc(-c3ccc(C)c(S(N)(=O)=O)c3)c3ccccc23)ccc1OC | 15.4 |
| COc1cccc(OCc2ccc(Cl)cc2)c1C#N | 19.6 |
| O=C(CCc1nnc2ccc(NCc3ccccc3Cl)nn12)NC1CCCCC1 | -7.98 |
| COc1ccc(C(CNC(=O)c2ccco2)N2CCCCC2)cc1 (centres unmarked) | -5.74 |
| CCC(NC(=O)Nc1cc(OC)c(OC)c(OC)c1)(C(F)(F)F)C(F)(F)F | 9.56 |
| O=C1N=c2ccccc2=C1c1sc(=S)n(CC2CCCO2)c1O (centres unmarked) | 5.15 |
| Cc1cccc(NC(=O)Cn2c(O)c(N=NC(=O)c3ccccc3O)c3ccccc32)c1 | 2.85 |
| CSc1nc(N2CCN(C)CC2)c2ccccc2n1 | -49.1 |
| O=C(Nc1ccccc1N1CCN(C(=O)c2ccc(Cl)cc2)CC1)c1cc2ccccc2o1 | -2.33 |
| Cc1cccc(NC(=O)c2ccc([N+](=O)[O-])o2)c1 | -10.1 |
| CC1CCN(C(=O)C(=O)c2cn(CC(=O)N3CCCCCC3)c3ccccc23)CC1 | 14 |
| CCOc1ccc(CN(C(=O)/C=C/c2ccco2)C2CCS(=O)(=O)C2)cc1 (centres unmarked) | -31.6 |
| COc1cccc(NC(=O)C2c3cc(OC)c(OC)cc3C(=O)N(C)C2c2cccnc2)c1 (centres unmarked) | -4.11 |
| O=C(CN1CCN(S(=O)(=O)c2ccccc2)CC1)Nc1ccc2c(c1)CCC2 | -32.3 |
| Cc1cccc(C2c3[nH]c4ccccc4c3CCN2Cc2cccn2-c2ncccn2)c1 (centres unmarked) | -77.8 |
| CCCc1cc(=O)[nH]c(SCC(=O)c2ccc(S(=O)(=O)N3CCCC3)cc2)n1 | -12.9 |
| COc1cccc(NC(=O)CS(=O)(=O)c2cccc3nsnc23)c1 | 4.92 |
| CCn1c(CNC(=O)C2CCCCC2)cc2cc(C)ccc21 | 28 |
| O=CNc1ccc(OC(=O)c2cncc(Br)c2)cc1 | 26.8 |
